Data taken from PubChem BioAssay AID493208 (National Center for Advancing Translational Sciences (NCATS), 2011).
The whole screen tested about 44,000 compounds, of which about 340 (0.77%) were called active. About 5% were inconclusive and are not listed. Calls follow the shape of the dose curve; as a rule, active = well fitted inhibition curve with a large enough effect; inconclusive = small, poorly fitted or top-dose-only effect; inactive = flat fitted curve, though single readings scatter. This is one part of the list.

assay: Acumen qHTS Assay for Inhibitors of the mTORC1 Signaling Pathway in MEF (Tsc2-/-, p53-/-) Cells: Sytravon; conditions: phospho-rpS6 immunofluorescence/PI, 24 h; series mostly up to 38.3 µM; activity change, negative = inhibition: at the top concentration;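 also: plate controls were DMSO for no effect and rapamycin for full effect; nearly all actives have a fitted effect of over 50% in size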
Summary of the method: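 Read-out: phospho-S6 Alexa-488 intensity over PI intensity per well, scored as % active cells using thresholds from rapamycin (7.5 nM) and DMSO controls. Tsc2-/-, p53-/- MEFs exposed to compound for 24 h; PI cell count recorded as viability.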

Activity change, negative = inhibition, inactive:
COc1ccccc1N1CCN(C(=O)c2sc3nc4n(c(=O)c3c2C)CCC4)CC1 4.42%
CCOc1ccc(C(=O)c2cn(Cc3ccccc3OC)c3cc4c(cc3c2=O)OCCO4)cc1 -8.22%
CCCCN(CC)CCNC(=O)c1cn(CCOC)c(=O)c2c1c1ccccc1n2C -3.53%
CCC(=O)N1CCc2cc(S(=O)(=O)CCC(=O)Nc3ccc(Cl)c(C(F)(F)F)c3)ccc21 -12.1%
O=C(NC1CC(=O)N(c2cccc(F)c2)C1)c1ccc(S(=O)(=O)N2CCOCC2)cc1 (stereo unspecified) 3.55%
COc1ccccc1CN1COc2ccc3c(C)cc(=O)oc3c2C1 0%
Cc1ccc(NC(=O)Cn2c(=O)oc3ccccc32)cc1Cl 1.14%
CCOC(=O)c1ccc(NC(=O)CSc2ccc(-c3sc(C)nc3C)nn2)cc1 -0.596%
COc1ccc(C(=O)c2oc3ccccc3c2NC(=O)c2ccc(F)cc2)cc1 9.6%
O=C(c1cn(CCOc2ccccc2F)c2ccccc12)C1CCCCC1 -2.29%
COc1ccc(Cn2ccc3nc(C)c(C(=O)N4CCN(c5ccccc5)CC4)cc3c2=O)cc1 -4.95%
CCOC(=O)c1ccc(NC(=O)c2cn(-c3ccccc3)nc2-c2ccc(Br)cc2)cc1 -3.99%
COc1ccc(NC(=O)CSc2oc(-c3cccs3)nc2S(=O)(=O)c2ccc(Br)cc2)c(OC)c1 -2.57%
Cc1nc2ccn(Cc3cccs3)c(=O)c2cc1C(=O)NCc1ccccc1 0.977%
CCc1nonc1NC(=O)c1oc2cc(C)c(Cl)cc2c1C 1.11%
Cc1cccc(Cn2cc(C(=O)c3ccccc3)c(=O)c3cc4c(cc32)OCO4)c1 -0.286%
Cc1ccc(Nc2sc(C(=O)c3ccccc3)c(N)c2C(=O)NC(C)C)cc1 -0.654%
COc1cccc(CN2C(=O)CN(C3CCCCC3)C(=O)C2c2ccc(OC)c(OC)c2)c1 (stereo unspecified) 6.95%
CCOc1ccc(CNC(=O)C2CCN(S(=O)(=O)c3cn(C)cn3)CC2)cc1OC 11.9%
COc1ccc(C2C=C(c3ccccc3)Nc3nc(NC(=O)/C=C/c4ccc(F)cc4)nn32)cc1 (stereo unspecified) 1.68%
COc1ccc2c(c1)c1c(c(=O)n(-c3ccccc3C)c(=O)n1CC(=O)N1CCCC1)n2C -2.61%
COc1ccc(-c2cc(C(F)(F)F)c(C#N)c(SCC(=O)Nc3ccccc3F)n2)cc1 -17.5%
COc1ccc(-n2c(/C=C/c3c(C)[nH]c4ccccc34)nc3ccccc3c2=O)cc1 1.38%
Cc1nn(C)c2c1c(-c1ccccc1)cc(=O)n2Cc1ccc(Cl)cc1 -0.0238%
COc1cccc(CNc2nccn(-c3ccc(OC)c(OC)c3)c2=O)c1 1.36%
COc1ccccc1C(=O)Nc1ccc(OCc2cc(=O)n3ccc(C)cc3n2)cc1 -1.72%
CCOc1ccc(S(=O)(=O)N2CCC(N3CCN(Cc4ccc(C)cc4)C(=O)C3=O)CC2)cc1 6.73%
COc1ccc(CNC(=O)c2cnn(-c3ccc(C)cc3)c2-n2cccc2)cc1OC -2.91%
COc1ccc(C)cc1-n1c(-c2ccc(C)cc2)cc2c1CC(C)(C)CC2=O -0.342%
COCc1cc(C)nc2sc3c(c12)NC(c1ccc(O)cc1)N(c1ccc(C)cc1)C3=O (stereo unspecified) 0.0534%
O=C(OCc1cccc(C(F)(F)F)c1)c1ccc(-c2nnn(Cc3ccc(F)cc3)n2)cc1 -3.3%
CCn1c(=N)c(C(=O)NC2CCCC2)cc2c(=O)n3ccccc3nc21 -21.4%
Cc1nn(C(=O)c2ccccc2)c(C)c1S(=O)(=O)N1CCCCCC1 -0.623%
CCN(C(=O)c1cn(-c2ccc(OC)cc2)c(=O)c2ccccc12)c1cccc(Cl)c1 -24.6%
CC(C)N1CCc2nc(SCC(=O)Nc3cccc(F)c3)[nH]c(=O)c2C1 2.26%
COc1ccc(-c2nc3scc(CCNC(=O)c4cc(OC)cc(OC)c4)n3n2)cc1 1.65%
CCOc1ccc(C(=O)OCc2cc(=O)n3cc(C)sc3n2)cc1 0.793%
Cc1cccc(C(=O)Nc2ccc3oc(-c4ccncc4)nc3c2)c1 -18.5%
CCCCCn1cc2c(c1-c1ccc(Cl)cc1)c(=O)n(C)c(=O)n2C -2.99%
COc1ccc2c(c1)C=C(C(=O)NCc1cc(Br)ccc1OC)CO2 2.23%
CCOC(=O)C1CCCN(S(=O)(=O)c2ccc3[nH]c(=O)oc3c2)C1 (stereo unspecified) 0.0241%
COc1ccccc1NC(=O)c1sc2ncn(Cc3ccccc3Cl)c(=O)c2c1C 0.749%
CCc1ccccc1NC(=O)c1sc(-n2nc(C)c(Cc3ccc4c(c3)OCO4)c2C)nc1C -4.3%
COC(=O)c1cccc(Nc2nn3c(=O)c4cc5c(cc4nc3s2)OCO5)c1 -15.9%
COc1ccc(S(=O)(=O)NCC(c2ccc(N(C)C)cc2)N2CCOCC2)cc1 (stereo unspecified) 1.75%
COc1ccc(-c2[nH]c3ccccc3c2SCCNC(=O)c2ccc(S(=O)(=O)N(C)C)cc2)cc1 1.76%
Cc1ccc2[nH]c3c(=O)n(CC(=O)NC(C)C)ncc3c2c1 -0.362%
COc1ccc(CNC(=O)CSc2ncc(S(=O)(=O)c3ccc(Br)cc3)c(=O)[nH]2)cc1 -0.511%
O=C(CSC1=Nc2ccccc2N=C(c2ccc(F)cc2)C1)NCc1ccccc1Cl 1.13%
CCCCOc1ccc(CNC(=O)Cc2ccc(NC(=O)N3CCSc4ncccc43)cc2)cc1 -27.8%
CCNc1oc(-c2ccc(COc3ccc(Cl)cc3)o2)nc1C#N -0.795%
NC(=O)c1ccccc1NC(=O)Cn1nc(Cc2cccnc2)c2ccccc2c1=O 1.02%
CCOc1ccc(CNC(=O)c2sc3ncnc(N(C)C4CCCCC4)c3c2C)cc1 1.94%
Cc1cccc(NC(=O)CSc2nc(=O)n(Cc3ccccn3)c3c2CCC3)c1C -4.88%
COc1ccc(CNC(=O)c2cc3cccc4c3n2CC(C)S4)c(OC)c1 (stereo unspecified) -23.5%
O=C(CSc1ncc(CO)n1Cc1ccc(Cl)cc1)NCc1ccc(F)cc1 -10.3%
COc1ccc(C(=O)Oc2cc(-c3ccc4c(c3)OCO4)cc(=O)c3c(C)oc(C)c23)cc1 3.6%
Cc1ccc(Cl)cc1NC(=O)CSc1nc2c(c(=O)[nH]1)CN(Cc1ccccc1)CC2 0.383%
COc1ccc(S(=O)(=O)N2CCN(CC(=O)Nc3ccc(Cl)c(C(F)(F)F)c3)CC2)cc1 -3.69%
COC(=O)c1cc2oc(C)cc2n1CC(=O)Nc1cc(Cl)ccc1OC -5.81%
CCOC(=O)c1ccc(NC(=O)CCc2c(C)nc3c(-c4ccc(F)cc4)c(C)nn3c2C)cc1 3.9%
Cc1ccccc1C(=O)Nc1ccc(C(=O)OCc2cc(=O)n3nc(C(C)C)sc3n2)cc1 0%
COc1ccc(NC(=O)C2Cc3ccccc3N2C(=O)c2ccccc2)cc1OC (stereo unspecified) 6.44%
Cc1ccc(-c2onc(C)c2C)cc1S(=O)(=O)Nc1ccc(Cl)cn1 5.67%
CCOc1ccc(NC(=O)N(C(C)C)C2CCN(C(C)=O)CC2)cc1 6.07%
O=S(=O)(c1ccc2nc(N3CCN(c4ccccc4)CC3)ccc2c1)N1CCCCC1 -3.35%
COc1ccc(-c2noc(-c3cccc(OC)c3OC)n2)cc1 -13.7%
Cc1cccc(NC(=O)CSc2nc3c(oc4ccccc43)c(=O)n2-c2ccc(F)cc2)c1 4.73%
COc1ccc2c(CNCCc3ccccc3)c(C(=O)O)n(Cc3cccc(F)c3)c2c1 -0.565%
COc1ccc(Nc2cc(C(=O)NCc3ccccc3)c3ccccc3n2)c(OC)c1 5.58%
Cc1oc2ccc(O)c(CN3CCCC3)c2c1C(=O)Nc1cccc(Cl)c1C -5.14%
CCOc1ccc(-c2cn3c(n2)sc2cc(C(=O)NC4CCCc5ccccc54)ccc23)cc1 (stereo unspecified) -16.3%
Cc1ccc(NC(=O)CC(C)S(=O)(=O)c2ccc3c(c2)NC(=O)CO3)cc1C (stereo unspecified) -5.8%
COc1ccc(NC(=O)c2cn3c4c(ccc(Cl)c4c2=O)OC(C)C3)cc1OC (stereo unspecified) 0.396%
CSc1ncc(C(=O)Nc2ccc(C(C)=O)cc2)c(-c2ccccc2)n1 -3.31%
COc1ccc(N(Cc2cccs2)C(=O)COc2cc(C)c(Cl)c(C)c2)cc1 -9.68%
CCOc1ccc2nc(NC(=O)c3cc(=O)c4cc(C)cc(C)c4o3)sc2c1 8.48%
Cc1cccc(NC(=O)Cc2ccc(-n3c(C)nc4cccnc43)cc2)c1C -8.31%
O=c1c2cnn(-c3ccc(F)cc3)c2ncn1Cc1ccc(F)cc1 0.0205%
COc1ccc(Cl)cc1NC(=O)Cn1cc2c(n1)CCC(C)C2 (stereo unspecified) -5.05%
CSc1nnc2[nH]c(=O)cc(C)n12 1.24%
COc1ccc(CNC(=O)C2Cc3cc(S(=O)(=O)N4CCCCCC4)ccc3N2C(C)=O)cc1 (stereo unspecified) 0%
COc1ccc(CNC(=O)c2ccc(-c3nc(CSc4ccccc4)c(C)o3)cc2)c(OC)c1 -0.479%
CC(=O)c1cccc(NC(=O)c2cc3nc(-c4ccc(Br)cc4)cc(C(F)(F)F)n3n2)c1 -0.0667%
CCc1ccc(NC(=O)c2cc3c([nH]c2=O)CC(C)(C)CC3=O)cc1 -6.07%
N#Cc1c[nH]n2c(NC3CCCCC3)c(-c3cccc(Cl)c3)nc12 -0.913%
CCOc1ccc2oc(=O)cc(CN3CCN(c4ccccc4)CC3)c2c1 4.76%
Cc1ccc(-c2nc(C)c(CCNC(=O)C(=O)Nc3ccc4c(c3)OCO4)s2)cc1 0.514%
COc1ccc(CCN2C(=O)N(c3ccccc3)C(=O)C2CC(=O)Nc2ccccc2)cc1 (stereo unspecified) -3.71%
CCCN1C(=O)C2(c3ccccc31)c1c(oc3ccc(C)cc3c1=O)C(=O)N2CCOC (stereo unspecified) -0.927%
CCOC(=O)C1CCN(CCC(=O)Nc2ccc(OC)cc2)CC1 4.22%
Cc1nc(N2CCOCC2)c2c(C(=O)N3CCN(c4cccc(C)c4C)CC3)c(C)oc2n1 6.04%
Cc1cc(C)c(NC(=O)CCC(=O)N2Cc3ccccc3Oc3ncccc32)c(C)c1 -4.17%
COC(=O)c1ccccc1NC(=O)Cn1c(=O)n(CCCC(=O)NCCc2ccc(OC)c(OC)c2)c(=O)c2ccccc21 -6.65%
COc1ccc(Nc2cc(C)c3cc(NC(=O)c4cc(OC)cc(OC)c4)ccc3n2)cc1 -3%
Cc1ccc(C)c(NC(=O)NCc2ccc3c(c2)CCN3C(=O)c2ccccc2)c1 3.32%
